Measurements as given in publication PMC9084892, “Von Willebrand factor A1 domain stability and affinity for GPIbα are differentially regulated by its O-glycosylated N- and C-linker” (eLife, 2022).

Columns and labels:
[1] = target: T1, Wild-type GPIbα, residues 1-290 of the mature protein, with biotinylated Avi-tag and His6 tag (biotin on the Avi-tag); test: BLI; biotinylated GPIbα on streptavidin sensors, A1 constructs as analyte; 20 mM HEPES pH 7.5, 0.02% Tween-20, 10 mM NaCl; global fit to a single kon and koff; settings: both partners purified
T1 chain: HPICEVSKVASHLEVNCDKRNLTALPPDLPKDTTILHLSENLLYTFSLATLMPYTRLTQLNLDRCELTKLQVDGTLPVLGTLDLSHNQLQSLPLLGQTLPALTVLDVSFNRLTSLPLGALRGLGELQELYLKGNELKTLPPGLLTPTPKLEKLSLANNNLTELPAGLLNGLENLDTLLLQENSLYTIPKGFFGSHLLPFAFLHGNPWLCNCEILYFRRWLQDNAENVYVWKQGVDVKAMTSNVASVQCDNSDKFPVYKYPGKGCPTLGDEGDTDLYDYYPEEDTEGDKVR

[2] = target: T1, Wild-type GPIbα, residues 1-290 of the …; test: BLI; biotinylated GPIbα on streptavidin sensors, A1 constructs as analyte; 20 mM HEPES pH 7.5, 0.02% Tween-20, 150 mM NaCl; global fit to a single kon and koff; Octet RED384; settings: both partners purified

B1: VWF A1 domain construct A1+OGly+N+C ([…], O-glycosylated) (domain or fragment)
chain: not shown
modifications: O-glycosylated N- and C-linkers
notes: von Willebrand factor, human, A1 domain with the N- and C-linkers, […], pre-pro-VWF numbering; It extends three residues beyond the bacterial A1+N+C so as to include the O-glycosylated residues Ser-1486 and Thr-1487; also called A1NC
[1]
  fold increase in affinity, 10 mM against 150 mM NaCl: 20 fold
  fold increase in kon, 10 mM against 150 mM NaCl: 7 fold

B2: VWF A1 domain construct A1+N+C ([…], not glycosylated) (domain or fragment)
chain: not shown
notes: source: E. coli SHuffle, purified (Ni-NTA, TEV cleavage, heparin, Superdex 200); not shown: thioredoxin, N-terminal, cleaved
[2]
  fold lower affinity than A1 short: 10 fold

B3: VWF A1 domain construct A1+N ([…], not glycosylated) (domain or fragment)
chain: not shown
notes: von Willebrand factor, human, A1 domain with the N-linker, […], pre-pro-VWF numbering; The limits for each name come from the start and end residues in the methods and from the N-linker being defined as […]; source: E. coli SHuffle, purified (Ni-NTA, TEV cleavage, heparin, Superdex 200); not shown: thioredoxin, N-terminal, cleaved
[2]
  fold lower affinity than A1 short: 4.3 fold

B4: VWF A1 domain construct A1+C ([…], not glycosylated) (domain or fragment)
chain: not shown
notes: von Willebrand factor, human, A1 domain with the C-linker, […], pre-pro-VWF numbering; The limits for each name come from the start and end residues in the methods; source: E. coli SHuffle, purified (Ni-NTA, TEV cleavage, heparin, Superdex 200); not shown: thioredoxin, N-terminal, cleaved
[2]
  fold lower affinity than A1 short: 2.5 fold

B5: VWF A1 domain construct A1+OGly+N ([…], O-glycosylated) (domain or fragment)
chain: not shown
modifications: O-glycosylated N-linker
notes: von Willebrand factor, human, A1 domain with the N-linker, […], pre-pro-VWF numbering; The sites were not determined on this construct; also called A1N
[2]
  fold lower affinity than A1+N: 10 fold

B6: VWF A1 domain construct A1+OGly+C ([…], O-glycosylated) (domain or fragment)
chain: not shown
modifications: O-glycosylated C-linker
notes: von Willebrand factor, human, A1 domain with the C-linker, […], pre-pro-VWF numbering; also called A1+OGlyc+C; A1C
[2]
  fold difference in koff, A1+OGly+C against A1+N (direction not told): 10 fold
  fold lower affinity than A1+C: 2 fold

B7: VWF A1 domain construct A1 short ([…]) (domain or fragment)
chain: not shown
notes: von Willebrand factor, human, A1 domain without the N- and C-linkers, […], pre-pro-VWF numbering; Both the mammalian and the bacterial methods allow a […] construct; If it was made in E. coli, it carried an N-terminal thioredoxin that was cut off with TEV protease; Long-range disulfide […] is present; source: purified (Ni-NTA, Superdex 200), gel filtered again on the day of measurement
[2]
  fold difference in kon, A1 short against A1+OGly+N+C: 80 fold
